# In the supplement of paper PMC4604168 (melanoma cell lines):
# The list shows a part of the results. Many values rest on one well or one pass, so single values are uncertain.
# Tests used:
# Assay in all cases: cell count relative to DMSO control; melanoma cells; higher = more viable cells
# Settings in all cases: library dose: low library concentration; 72 h
# [1] = system: MZ2-MEL
# [2] = system: MeWo
# [3] = system: RPMI7951
# [4] = system: RVH-421
# [5] = system: SkMel28
# [6] = system: SkMel2
# [7] = system: SkMel30
# [8] = system: SkMel5
# [9] = system: UACC257
# [10] = system: UACC62
# [11] = system: WM115
# [12] = system: WM1716
# [13] = system: WM1745
# [14] = system: WM3526
# [15] = system: WM3619
# [16] = system: WM451Lu
# 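Further: cell number obtained by counting DAPI-stained nuclei in high-throughput microscope images with image analysis software, screen run in 1,536-well plates.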
SMILES,cell count [1] [%],cell count [2] [%],cell count [3] [%],cell count [4] [%],cell count [5] [%],cell count [6] [%],cell count [7] [%],cell count [8] [%],cell count [9] [%],cell count [10] [%],cell count [11] [%],cell count [12] [%],cell count [13] [%],cell count [14] [%],cell count [15] [%],cell count [16] [%]
"CN(c1ncccc1CNc1nc(Nc2ccc3c(c2)CC(=O)N3)ncc1C(F)(F)F)S(C)(=O)=O + O=C(Nc1cccc(Cl)c1)Nc1ncc(CCNc2ncnc3ccsc23)s1 [SNS314] (first compound 0.08 µM, partner dose 0.0008 µM)",91.5,84.7,91.2,89.3,71.5,92,101,81.9,77.7,72.8,69,88.5,80.7,85,106,78
"CCCS(=O)(=O)Nc1ccc(F)c(C(=O)c2c[nH]c3ncc(Cl)cc23)c1F + CC(C)CCN1c2nc(Nc3cc(F)c(O)c(F)c3)ncc2N(C)C(=O)C1C [BID1870] (first compound 0.08 µM, partner dose 0.2 µM)",86,98.9,107,105,97.5,98.3,103,117,110,58.8,96.6,100,100,76,107,122
"NC1(c2ccc(-c3nc4ccn5c(=O)[nH]nc5c4cc3-c3ccccc3)cc2)CCC1 + N#Cc1c(O)c2c(-c3ccc(-c4ccccc4O)cc3)csc2[nH]c1=O [A769662] (first compound 0.4 µM, partner dose 2 µM)",96.2,76.6,87.3,80.4,63.2,84.5,90.2,94,91.9,84.7,74.9,77.4,103,58.8,125,98.7
"CN(c1ncccc1CNc1nc(Nc2ccc3c(c2)CC(=O)N3)ncc1C(F)(F)F)S(C)(=O)=O + Cc1ccc(NC(=O)c2cccc(N(C)C)c2)cc1NC(=O)c1ccc(O)cc1 [ZM336372] (first compound 0.08 µM, partner dose 2 µM)",64.5,107,77.8,77.3,71,101,81.3,71,38.4,75.6,77.9,93.9,99.8,97.3,89.9,57.8
"NC1(c2ccc(-c3nc4ccn5c(=O)[nH]nc5c4cc3-c3ccccc3)cc2)CCC1 + CCN(CC)CCCCNc1ncc2cc(-c3cc(OC)cc(OC)c3)c(NC(=O)NC(C)(C)C)nc2n1 [PD173074] (first compound 0.4 µM, partner dose 0.1 µM)",93.4,92.4,101,97.9,73.6,82.6,79.4,89.7,71.8,72.2,79.8,86.8,79.7,53.3,89.4,92.2
"CCCS(=O)(=O)Nc1ccc(F)c(C(=O)c2c[nH]c3ncc(Cl)cc23)c1F + COc1ccc(-c2ccc3c(N4CCOCC4)nc(N4C[C@@H](C)O[C@@H](C)C4)nc3n2)cc1CO [KU0063794] (first compound 0.08 µM, partner dose 0.02 µM)",84,101,111,83.8,65,84,92.9,112,64,65.6,100,127,118,75.2,88,85.6
"CN(c1ncccc1CNc1nc(Nc2ccc3c(c2)CC(=O)N3)ncc1C(F)(F)F)S(C)(=O)=O + Cn1cc(/C=C2\C(=O)Nc3cccnc32)c2ccccc21 [GW441756] (first compound 0.08 µM, partner dose 0.4 µM)",87.9,88.7,56.6,90.5,80.8,78.7,102,74.8,71,74.8,84.4,84.7,78.9,145,110,81.7
"CN(c1ncccc1CNc1nc(Nc2ccc3c(c2)CC(=O)N3)ncc1C(F)(F)F)S(C)(=O)=O + COc1ccc(COc2ccc(Cc3cnc(N)nc3N)cc2OC)cc1 [GW2580] (first compound 0.08 µM, partner dose 1 µM)",86.1,98.6,74.3,91.2,79.7,96.4,101,76.6,74.5,67.5,80.4,85.1,87.3,102,81.8,79.1
"C=C(c1ccc(C(=O)O)cc1)c1cc2c(cc1C)C(C)(C)CCC2(C)C [Bexarotene] + O=C(O)C(=O)Nc1sc2c(c1C(=O)O)CCNC2 [TCS401] (first compound 2 µM, partner dose 1.66667 µM)",107,96.3,99.2,92.9,94.3,99.1,97.6,81.7,83.2,93.5,94.6,78.9,89.2,77.2,99.9,86.5
"NC1(c2ccc(-c3nc4ccn5c(=O)[nH]nc5c4cc3-c3ccccc3)cc2)CCC1 + CCCCCCCCCCCC1=C(O)C(=O)C=C(O)C1=O [Embelin] (first compound 0.4 µM, partner dose 1.2 µM)",96.9,92.2,104,91.8,84,90.9,90.5,91.1,81.1,89.7,81,107,83.8,69.3,95.1,92.2
